# Source: publication PMC6919601, “Identification of Plasmodium dipeptidyl aminopeptidase allosteric inhibitors by high throughput screening” (PLoS ONE, 2019)
# Screen size: about 110,000 compounds; about 230 (0.21%) showed an effect of 50% or more. The list shows a part of the results.
# Molecular target: DPAP1 (Plasmodium falciparum, UniProt Q8IIJ9)
# Test: primary screen, percent inhibition; read by cleavage of a fluorogenic dipeptide substrate; higher = more effect of the substance
# Design: species or system P. falciparum D10 trophozoite lysates; single well
# 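Note: 30 min substrate incubation versus DMSO and 10 µM JCP410 controls.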
# Sequence of DPAP1 (Q8IIJ9 whole entry, looked up): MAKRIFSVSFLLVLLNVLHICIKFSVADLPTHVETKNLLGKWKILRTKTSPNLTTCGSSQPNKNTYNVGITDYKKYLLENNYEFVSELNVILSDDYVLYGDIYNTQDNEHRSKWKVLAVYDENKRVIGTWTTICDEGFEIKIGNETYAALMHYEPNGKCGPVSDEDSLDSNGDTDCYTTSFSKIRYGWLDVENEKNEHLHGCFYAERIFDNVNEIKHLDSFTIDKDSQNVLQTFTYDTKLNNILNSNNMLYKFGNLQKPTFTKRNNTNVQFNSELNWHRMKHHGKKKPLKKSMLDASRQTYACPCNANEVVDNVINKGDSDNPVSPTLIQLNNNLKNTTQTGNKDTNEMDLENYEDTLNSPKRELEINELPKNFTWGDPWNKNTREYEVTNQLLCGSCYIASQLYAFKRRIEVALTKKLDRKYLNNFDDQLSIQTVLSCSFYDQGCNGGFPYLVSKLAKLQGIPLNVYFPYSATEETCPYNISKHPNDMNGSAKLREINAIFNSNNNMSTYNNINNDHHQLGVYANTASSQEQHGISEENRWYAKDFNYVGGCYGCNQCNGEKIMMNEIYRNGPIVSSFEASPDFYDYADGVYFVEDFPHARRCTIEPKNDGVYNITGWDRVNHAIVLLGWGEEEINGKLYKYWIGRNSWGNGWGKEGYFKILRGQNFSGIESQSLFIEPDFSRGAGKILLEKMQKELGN
row,SMILES,% Inhibition @ 10 uM [%]
1,Cc1ccccc1Cn1c(CN2CCN(C)CC2)nc2c1c(=O)n(C)c(=O)n2C,-8.06
2,CCOc1ccc(CCNC(=O)Cn2c(=O)cc(C(F)(F)F)c3c(C)nn(C)c32)cc1OCC,-0.12
3,O=C(CN(C1CCCCC1)S(=O)(=O)c1ccc(F)cc1)Nc1ccc(Cl)cc1,2.27
4,CC(O)Cn1c2ccccc2c2cc(Cl)ccc21 (stereo not shown),0.132
5,CCCSc1nnc(NC(=O)c2sc(C)nc2C)s1,0.758
6,O=C(Nc1ccc2c(c1)C(=O)OC2)NC1CCCCC1,2.38
7,CCOC(=O)C1=C(C)NC(=O)NC1c1c(F)cccc1Cl (stereo not shown),-4.75
8,O=C(CNC(=S)N(Cc1ccc(F)cc1)C1CCCCC1)NC1CC1,2.9
9,Cc1[nH]c2ccccc2c1C(=O)CN1CCCCC1,2.62
10,CC1=C(c2ccc(C)cc2)S(=O)(=O)N=C1NC(C)CCc1ccccc1 (stereo not shown),5.42
11,O=C(O)/C=C\C(=O)Nc1ccc(Cl)c([N+](=O)[O-])c1,-0.807
12,COc1ccc(-c2csc(/C(C#N)=C/c3ccccc3Cl)n2)cc1,4.12
13,COc1ccc(/C=C(/NC(=O)c2ccco2)C(=O)Nc2ccc(C)cc2)cc1,-4.08
14,O=C(CN1C(=O)C2C3CCC(C3)C2C1=O)N1CCN(Cc2ccccc2)CC1 (stereo not shown),-2.3
15,CCOCCCCNC(=O)c1ccc2c(c1)nc(C)n2-c1cccc(C)c1,-7.57
16,COC(=O)C1=C(C)OC(N)=C(C#N)C1c1cc(Cn2cncn2)cs1 (stereo not shown),0.895
17,CCOC(=O)C1CCN(C(=O)c2cccs2)CC1,-2.78
18,COc1cc(OC)c(C2C(C(=O)Nc3cccnc3)=C(C)Nc3ncnn32)cc1OC (stereo not shown),1.97
19,Cc1ccc(C2C(C(=O)c3ccc(Cl)cc3)=C(O)C(=O)N2c2cccnc2)cc1 (stereo not shown),15.9
20,Cc1ccc(-c2csc(NC(=O)CN3C(=O)c4ccccc4C3=O)n2)cc1,-6.08
21,O=C(c1cnn2c1NC(c1ccc(Br)cc1)CC2C(F)(F)F)N1CCCC1 (stereo not shown),1.02
22,CCOC(=O)N1CCC(Nc2ccc(SC)cc2)CC1,3.18
23,CCN1CCC(C#N)(NC(=O)[C@H](C[C@H](C)c2ccccc2)NC(=O)c2ccc(-c3cc(C(=O)OC)ccc3Cl)cc2)CC1,4.33
24,Cc1[nH]c2ccccc2c1-c1cc2c3c(C)n(C)c(C)c3c(C)nn2c1,-4.75
25,COc1cccc(-c2nc3ccc4ccccc4c3c3c2CCC3)c1OC,1

row,SMILES,% Inhibition @ 10 uM [%]
1,O=C(CCC1CCCCC1)NC1(C(F)(F)F)N=C(c2ccccc2)NC1=O (stereo not shown),-4.68
2,Cc1ccc(S(=O)(=O)N(CC(=O)NC2CC2)c2ccccc2)cc1,4.83
3,COc1cccc(C(=O)Nc2c3c(nn2-c2ccc(C)cc2C)CS(=O)(=O)C3)c1,11
4,CCN1C(=O)C(CC(=O)Nc2c(C)cccc2C)S/C1=N/c1ccc(S(N)(=O)=O)cc1 (stereo not shown),-18.8
5,O=C(NCc1ccc2c(c1)OCO2)c1cc(-c2ccccc2)c(N2CCOCC2)s1,-4.69
6,CC1OC(Nc2cccc3ccccc23)C(O)C(O)C1O (stereo not shown),-0.216
7,O=C(NC(=O)c1ccc2ccccc2c1)Nc1ccc(Br)cc1,0.634
8,Brc1cccc(CN2CCN(c3ccccc3)CC2)c1,-0.0404
9,Cc1nnc(NC(=O)CSc2ccc(-c3ccncc3)nn2)s1,4.06
10,COc1cccc(S(=O)(=O)Nc2ccc(C(=O)N3CCCCC3C)cc2)c1 (stereo not shown),0.709
11,CN(c1ccc(C(=O)N2CCC(C(N)=O)CC2)cc1)S(C)(=O)=O,-2.75
12,Cc1nc(O)c(C(c2cc([N+](=O)[O-])ccc2O)c2c(O)nc(C)nc2O)c(O)n1,-4.02
13,Cc1ccccc1NC(=O)CN1C(=O)c2cccc3cccc1c23,1.69
14,CCc1ccccc1NC(=O)/C=C/c1cccc([N+](=O)[O-])c1,1.08
15,COc1ccc(C(=O)Nc2ccc(O)cc2)cc1Cl,10.7
16,CC(C)OCCCNC(=O)CNC(=S)N1CC2CC(C1)c1cccc(=O)n1C2 (stereo not shown),2.79
17,CC(C)NOC(=O)c1ccc(Cl)cc1,-2.6
18,CCNC(=O)c1c(O)c2ccccc2n(C)c1=O,-3.38
19,O=C(NCc1ccco1)c1ccc(-n2c(-c3ccccc3)nc3cccnc32)cc1,0.967
20,O=C(NC1(C(F)(F)F)C(=O)Nc2c1c(=O)[nH]c(=O)n2-c1ccc(Cl)cc1)c1ccccc1Cl (stereo not shown),0.231
21,O=C(NCc1cccnc1)NCc1noc2ccccc12,2.22
22,Cc1cc(NC(=O)CSCCc2ccncc2)no1,4.47
23,Cc1cc(C)cc(-n2nnc(C(=O)NCCNC(=O)c3nnn(-c4cc(C)cc(C)c4)c3N)c2N)c1,7.56
24,Cc1cc(C)c2nc(N3CCC(C(=O)NC(C)c4ccc5c(c4)OCCO5)CC3)sc2c1 (stereo not shown),4.95
25,CC1CN(C(=O)c2ccccc2F)C(C)CN1C(=O)c1ccccc1F (stereo not shown),3.67

row,SMILES,% Inhibition @ 10 uM [%]
1,Cc1noc2ncnc(N3CCN(Cc4ccccc4)CC3)c12,2.76
2,Cc1ccc2oc(=O)c3cc(C(=O)Nc4cccc(C)n4)sc3c2c1,-4.94
3,Cc1ccc(C2C(C(=O)c3ccc(C)o3)=C(O)C(=O)N2c2ncccn2)cc1 (stereo not shown),-5.31
4,CC(C)C[C@H](NC(=O)OCC1CCCCC1)C(=O)NCC#N,-6.46
5,CC(C)Sc1nc2c(c(=O)[nH]c(=O)n2C)n1Cc1cccc(Br)c1,0.746
6,CC1=C(c2ccc(C(C)C)cc2)S(=O)(=O)N=C1NCCc1ccc(Cl)cc1,2.27
7,CCOc1ccc(C(=O)N(Cc2ccc(Cl)cc2)Cc2ccco2)cc1,-0.45
8,CCN1CCCC1CNS(=O)(=O)c1cc(-c2cc(C)no2)ccc1C (stereo not shown),-5.12
9,CC(C)CCN1CCC(CNS(=O)(=O)c2ccc(-c3ccc(O)nn3)s2)CC1,-8.65
10,Cc1nc2c(c(C)c1CCC(=O)NCc1ccc3c(c1)OCO3)c(=O)n(C)c(=O)n2C,0.44
11,COc1ccc(C2Sc3ccccc3N=C3C2=C(O)c2ccccc23)cc1 (stereo not shown),0.98
12,COc1ccc(CC(=O)Nc2c(C(=O)N3CCN(c4ncccn4)CC3)oc3ccccc23)cc1,4.6
13,COc1ccc(NC(=O)CSCC(=O)Nc2ccccc2F)cc1,3.5
14,CCc1ccc(N2C(=O)C(Cl)=C(Nc3cccc(C(=O)O)c3)C2=O)cc1,4
15,COc1ccc(C(=O)Nc2sc3c(c2C#N)CCC(C)C3)cc1OC (stereo not shown),0.317
16,CCOc1ccc(CNc2ccc(CNc3nc[nH]n3)cc2)cc1,-1.61
17,CN1C(=O)C(=CNc2ccccc2Cl)C(=O)N(C)C1=O,4.07
18,Cc1ccc(CNC(=O)c2cnc3ccccn3c2=O)cc1,-1.88
19,Cc1cc(/C=C2\C(=N)N3N=C(S(=O)(=O)CC(C)C)SC3=NC2=O)c(C)n1-c1ccccc1,-3.35
20,Cc1nn(C)c(C)c1CN(C)S(=O)(=O)c1c(C)c(C)c(C)c(C)c1C,-3.45
21,Cc1ccc(NC(=O)C(C#N)=C2CCCCCC2)cc1,0.983
22,CCn1cc(/C=C(\NC(=O)c2ccccc2)C(=O)NC(C)C)c2ccccc21,-1.96
23,Oc1cccc(CN2CCN(c3ccc(F)cc3)CC2)c1,3.25
24,CC(=O)c1ccc(C2CC2)c([N+](=O)[O-])c1,5.54
25,Cc1ccc(CNC(=O)Cn2ncn3c(cc4sccc43)c2=O)cc1,3.4

row,SMILES,% Inhibition @ 10 uM [%]
1,O=C(O)c1ccccc1N1C(=O)c2cccc([N+](=O)[O-])c2C1=O,-3.16
2,Cc1ccc(-c2nn3c(C)nnc3c3ccccc23)cc1S(=O)(=O)NCC1CCCO1 (stereo not shown),-0.222
3,CC(=O)N1CCN(Cc2cc(C)ccc2C)CC1,-6.82
4,Cc1nn(C(C)C(=O)NCCCc2ccccc2)c(=O)c2nn(-c3ccccc3)c(C)c12 (stereo not shown),-0.307
5,CCC/N=c1\c(NC(=O)Cc2ccc(OC)cc2)c(O)oc2ccccc12,-4.46
6,CCN(CC)CCCOc1ccccc1,-0.906
7,O=C1CC(N2CCN(c3ccccc3F)CC2)C(=O)N1c1ccc2c(c1)OCCO2 (stereo not shown),2.64
8,Cc1c2cnn(CC(=O)N(C)Cc3ccccc3)c(=O)c2c(C)n1Cc1ccccc1,1.22
9,COC(=O)c1cc(S(=O)(=O)N2CCC(Cc3ccccc3)CC2)cn1C,-6.59
10,CCCC[C@H](NC(=O)[C@H](Cc1ccc2ccccc2c1)NC(=O)c1cccc(CN)c1)C(=O)COCc1ccccc1,-3.97
11,CC(=O)Nc1ccc(NC(=O)C(C)c2ccc(CC(C)C)cc2)cc1 (stereo not shown),-5.92
12,OC1(c2ccc(Cl)cc2)CCN(Cc2cccc(Cl)c2)CC1,5.99
13,O=c1c2c3n(c4cc(Cl)c([N+](=O)[O-])cc4c-2nn1-c1ccccc1)CCC3,2.23
14,CC1CCCCN1C(=O)C1CC=CCC1C(=O)O (stereo not shown),3.94
15,CC(CCc1ccccc1)NC(=O)c1ccccc1C(=O)O (stereo not shown),2.79
16,CCOc1cc(C2C3=C(CC(C)(C)CC3=O)N(CCOC)C3=C2C(=O)CC(C)(C)C3)ccc1O,3.47
17,N#CC1=C2SCN(Cc3ccco3)CN2C(=O)CC1c1cccs1 (stereo not shown),47.7
18,O=C1c2ccccc2-c2nn(C(=O)c3ccncc3)c3cccc1c23,2.46
19,O=C(c1ccc(Br)o1)N1CCN(c2ccc(F)cc2)CC1,1.03
20,NC(=O)c1ccc(NC(=O)c2ccc(COc3ccc(F)cc3)o2)cc1,-0.63
21,CCC(C)n1c(=N)c(C#N)cc2c(=O)n3cc(C)ccc3nc21 (stereo not shown),0.279
22,Cn1c(O)cc(=O)nc1SCc1ccc(Cl)cc1,-0.833
